# Test results: the RNAGym collection of RNA variant scans (doi:10.7554/elife.90254)
# Read counts are not given, so values of variants with three or more changes are uncertain.
# B1: LINE1-mini (parent)
# chain: GGCAGAGCUCAACACAGCGUGGCAAAGUGGCUGUGGCUAGACUGCC
# Variants of: B1
# Test: self-cleavage, relative activity (ratio to wild type); higher = more cleavage; in vitro, sequencing; the parent is a self-cleaving ribozyme
row,Variant,self-cleavage
1,C3G A4C C13U G17A G40A,0.25
2,C3G A4C C13A C37U,1.04
3,C3A G22A A41C G44A,0.05
4,C3A C23U U43A G44A,0.15
5,C3A G5C A26U,0.43
6,C3G A4G G27A C31G,0.04
7,C3A G27U U34G,0.04
8,C3A G22C C23G,0.23
9,C3A G7C C31U G33C,0.1
10,C3A G22U G35C,0.17
11,C3A U9A G35U,0.04
12,C3A G17A A26U U32A,0.06
13,C3A G21U U38G,0.03
14,C3A U9C C13G C37A,0.07
15,C3A U20G G40U G44U,0.16
16,C3A C42G C46G,0.03
17,C3A U9C U38A G40U,0.05
18,C3A U34G C42A G44C C45G,0.09
19,C3A G7C C10G C18U G40A,0.02
20,C3A C23U U28C,0.26
21,C3A U9A C10U G27A C31G,0.06
22,C3A C42A U43A C45A,0.12
23,C3A U34C C42A,0.15
24,C3A G27A G40U U43A,0.08

row,Variant,self-cleavage
1,C3A G21U G35U,0.23
2,C3A G5A G21C G36A,0.28
3,C3A G5U A6C C10A A16C A41G C42A,0.01
4,C3G A6G G30A,0.51
5,C3A G5C G17C U20G,0.06
6,C3A G35A A41U,0.06
7,C3A G27A U28C U43G G44C,0.11
8,C3A G5U C15G G27C U38G A41U C46U,0.01
9,C3A G5U U20C,0.08
10,C3A U9G A16C G19C G44A,0.03
11,C3A G27C G29A,0.14
12,C3A G5A G19C,0.05
13,C3G A4C A16U G17U G27A,0.22
14,C3A G35U A39G,0.21
15,C3A U32A U38C,0.05
16,C3A G21U A24U G35U G40A,0.17
17,C3A U34A C45A,0.11
18,C3G A6C A12C,0.06
19,C3A C23G A24G,0.5
20,C3A C23G A24C,0.16
21,C3A C42A C45U,0.22
22,C3A G19U G33U,0.04
23,C3G A6G C8G,0.03
24,C3G A6G C8U,0.48

row,Variant,self-cleavage
1,C3A G5A C18U G21U,0.9
2,C3A G7A U43A,0.47
3,C3A G19A U32G,0.05
4,C3A G5A A16U A39C,0.21
5,C3G A4U C8U G19A C23U C46A,0.02
6,C3G A6C A11G G17U G40A,0.02
7,C3A U9G C13U,1.01
8,C3A C15U C31U G36U,0.16
9,C3A G5A A16U C37U U43G C45G,0.24
10,C3A G7A C8A A39C,2.1
11,C3A G5U A26C U43A,0.09
12,C3A C23G G36A C37A U38C,0.24
13,C3A C18A C42A,0.02
14,C3A G5C U28G,0.05
15,C3G A4G C13A G44A,0.06
16,C3A G29U G30U U34C A39G A41C C45U,0.05
17,C3A G5A U9A C10G C37U G44C,0.03
18,C3A G5C C13U A41G,0.05
19,C3A G7C G17A G19C,0.04
20,C3G A4C A24C G29U G44C,0.05
21,C3A G5U G35C C42U,0.18
22,C3G A6G A24C G35C,0.03
23,C3A C18U A25C C45A,0.13
24,C3A C15U C18A U28A C37G,0.1

row,Variant,self-cleavage
1,C3A G30C G35U,0.37
2,C3A G27A G35U U43C,0.26
3,C3A G7A G33U G36A G40A C42U,0.1
4,C3A U9G G19U,1.84
5,C3A U28G G33U C42U,0.26
6,C3A G17U G19C,0.05
7,C3A C15G G27A,0.04
8,C3A U9A A14U U28A U32G,0.11
9,C3A G7U G27U C37A,0.47
10,C3G A6G C8U C31U,0.02
11,C3G A4C G22A,0.13
12,C3A U28A G30U A39C,0.19
13,C3A G5A G21C C23A C31G,0.09
14,C3A G21A G30A G40A C45G,0.21
15,C3A C18G U34A G40U,0.67
16,C3A U32G C37A,0.17
17,C3A G22C C42A,0.06
18,C3A C15U G36C,0.3
19,C3A U9A A12G G44A,0.03
20,C3A C23U G30U,0.16
21,C3A G36U C37A,0.31
22,C3A G27C C31G U38G U43C G44U,0.02
23,C3A G5A C13G A14C,0.68
24,C3A U32G C37A C45A,0.16

row,Variant,self-cleavage
1,C3A G22C A26G C46U,0.07
2,C3A G5U C23U,0.09
3,C3A G19C C31U G33A,0.19
4,C3G A4G A14C A25C G29A C31G A41G,0
5,C3A G27C U28G C31U,0.13
6,C3A G27C G35A,0.31
7,C3A G7C A12C C15A C23A G40U,0.02
8,C3G A6C C13U A25C,0.12
9,C3A U9A U20C G22C G33A,0.08
10,C3G A4C C23U,0.35
11,C3A G7U C8A A11G A12G C31G,0.03
12,C3A G36U C42G U43C,0.01
13,C3A U34C G36U,0.21
14,C3A U34G G40C,0.01
15,C3A G7U C10A A41C,0.04
16,C3A U9A C10A C45G C46A,0.06
17,C3A G27A C31A,0.11
18,C3A G5A U20C G30U U38C G40A C42G,0.05
19,C3A G5C C10G A16C G22A G36C,0.03
20,C3A G27C G36U U43G,0.15
21,C3G A4U G5C,0.49
22,C3A C18U C42A,0.14
23,C3A G7A A11G C18U A39G,0.04
24,C3G A4U G33U G44C C45A,0.12

row,Variant,self-cleavage
1,C3A G7C A11U,0.02
2,C3A U9C A14U G35A,0.04
3,C3A G21U U32A,0.06
4,C3G A4C U28C G29U A39G C46A,0.11
5,C3G A4C G5A A6G G40U,0.56
6,C3A G7C G21C,0.04
7,C3A G19U U20A,0.13
8,C3A G7C A12C G17A A24G C31G G44U,0
9,C3A G5U A25C G27A,0.46
10,C3A C15A C46G,0.08
11,C3G A6G C10U C13G C18A,0.02
12,C3A G21C C23U,0.44
13,C3A G5U C18A G36C,0.05
14,C3A C31G G40U,0.13
15,C3A C15U G33A,0.79
16,C3G A4G A25G C31A,0.03
17,C3A G5U G36U,0.17
18,C3A U9A C13A G21A C23A,1.2
19,C3A G7U C15G G36A U38C,0.09
20,C3A U9A G30C U32G G36U A39G,0.08
21,C3A U9C C31U,0.03
22,C3A U34C G36U C42U G44C,0.07
23,C3A G5U U32C,0.25
24,C3A G5U U32G,0.13

row,Variant,self-cleavage
1,C3A G5U G36U A41U,0.12
2,C3A G21A A24U U28G C45U,0.11
3,C3A C37A C46G,0.21
4,C3A C37A C46A,0.53
5,C3A G17C G19U,0.08
6,C3G A4G C37A,0.08
7,C3A G7U U32A C45G C46U,0.18
8,C3A G35A U43A,0.46
9,C3A G5C A12C C13U A14U U32G G35C A41C,0.07
10,C3A C18G U28A G33C,0.18
11,C3A G30A A39C,0.07
12,C3A G7U A25U,0.41
13,C3A G5A U20G A26G G35U,0.05
14,C3A G5A U20G G21U G40U,1.21
15,C3A G5A C10U A39C C45A,0.07
16,C3A C18G C31U,0.03
17,C3G A4C G17C C46A,0.19
18,C3G A4G C18U U28G,0.34
19,C3A U9C C18G G21U C23A A24U G29U C37G,0.02
20,C3A C23U A24C,0.45
21,C3A U9G A25G,0.04
22,C3A G7A G30A C31G U43C,0.18
23,C3A G30A A41G,0.13
